In the RNAGym collection of RNA variant scans (doi:10.1093/nar/gkz1192):
The source gives no read counts; variants with many changes may rest on few reads.

B1: CPEB3 Ribozyme (parent)
chain: UAACAGGGGGCCACAGCAGAAGCGUUCACGUCGCAGCCCCUGUCAGAUUCUGGUGAAUCUGCGAAUUCUGCUGUAUAUCUC

Variants of: B1
Experiment: self-cleavage, relative activity (ratio to wild type); higher = more cleavage; in vitro, sequencing
In short: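 After error-prone PCR and barcoding, CPEB3 ribozyme mutant libraries were transcribed with T7 RNA polymerase at 37°C for 5 hours, then given 15 min with DNase I before an EDTA stop, and they cleaved during both steps. Reverse transcription with template switching preceded Illumina sequencing. Relative activity divides a variant's cleaved/total read fraction by the unmutated ribozyme's. At least 5 reads were required per variant, and three batches were averaged.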
With A28U C40U U49A the self-cleavage was 0.1.
For U31C A56U U76C, the self-cleavage was 0.27.
A28G U31C U49C U76A gave a self-cleavage of 0.1.
Work on C29A U41G A57G U60C yielded a self-cleavage of 0.11.
With A28U U54A A57U A64G the self-cleavage was 0.3.
For C29U C32U A35G G36U U74C, the self-cleavage was 0.14.
With U31C A57G A75G U76A the self-cleavage was 0.65.
Variant A28U U60C U80C has a self-cleavage of 0.38.
Variant A28G G30A U31C has a self-cleavage of 0.34.
A28U C34U U41A U54A U76C showed a self-cleavage of 0.11.
A28G U54G G55U showed a self-cleavage of 0.21.
With A28U C39G U49C the self-cleavage was 0.16.
For U31C A35G A47G U60A, the self-cleavage was 0.43.
Variant G30A U41C A56U U69A has a self-cleavage of 0.06.
For C29A U31C U80G, the self-cleavage was 0.23.
G30A U31A A47U U54C A56G U78A gave a self-cleavage of 0.
Work on G30U U43C A45G U66C yielded a self-cleavage of 0.15.
Work on G30U A47G U74A yielded a self-cleavage of 0.22.
Work on A28U C40G A64G U69C yielded a self-cleavage of 0.13.
In the case of U31A U51A U60C, the self-cleavage is reported as 0.28.
A28U U31C U54C A64U U69C U72G showed a self-cleavage of 0.09.
A28G U48C A57G A65G U66A showed a self-cleavage of 0.13.
Variant A28U A47G U58A G70A has a self-cleavage of 0.05.
With A28U U31G A64G the self-cleavage was 0.18.
C29U A47G U58C U80A gave a self-cleavage of 0.56.
In the case of A28U A56G U72C U74C, the self-cleavage is reported as 0.87.
Variant U31C A35U A56G U69C has a self-cleavage of 0.1.
In the case of G30A A47G A56G U58C, the self-cleavage is reported as 0.26.
A28G U51A U66A gave a self-cleavage of 0.17.
A28G U67C U78C gave a self-cleavage of 0.42.
Work on A28G U54C A56U A64G yielded a self-cleavage of 0.13.
With U31A U43C U66C the self-cleavage was 0.24.
U31A G70A U72C A77C U78C gave a self-cleavage of 0.09.
U31C A47G U49A U58C gave a self-cleavage of 0.57.
In the case of G30A U48C A77G, the self-cleavage is reported as 0.31.
U31A A45U U72A showed a self-cleavage of 0.44.
A28G U41A U43C U49C gave a self-cleavage of 0.09.
With C29U A47G G63C the self-cleavage was 0.35.
Work on A28G U41C U43C A56G A75U yielded a self-cleavage of 0.05.
With U31A G36C A56C the self-cleavage was 0.12.
A28U C29U C38U U72A U76C showed a self-cleavage of 0.09.
With G30C U31C U60C the self-cleavage was 0.16.
A28U U31A A57G showed a self-cleavage of 0.35.
Work on A28U U51G U80C yielded a self-cleavage of 1.07.
In the case of A28U U60C A65G U69A U76A A77U, the self-cleavage is reported as 0.15.
In the case of G30C U31A U41A U60C U66C, the self-cleavage is reported as 0.06.
With U31A U54A U66C the self-cleavage was 0.21.
With U31A G55U U69A U80A the self-cleavage was 0.26.
U31C A35G U41A U67C gave a self-cleavage of 0.14.
Variant A28U A35U U41C U58G has a self-cleavage of 0.1.
C29A A35G C37U gave a self-cleavage of 1.1.
U31C A56C A57G U58C gave a self-cleavage of 0.09.
G30A U51A U69C showed a self-cleavage of 0.09.
With U31C A57G U60A U76C the self-cleavage was 0.25.
U31A A35G A64G gave a self-cleavage of 1.31.
With U31A A35G U54C U78C the self-cleavage was 1.28.
U31C A35U A56U U80C C81U gave a self-cleavage of 0.18.
In the case of U31A A45U A64G U69A, the self-cleavage is reported as 0.09.
Work on A28G U49A G63A U80C yielded a self-cleavage of 0.73.
A28G C40U U72A A75U gave a self-cleavage of 0.36.
In the case of A28G U31A U41C A56G U76C, the self-cleavage is reported as 0.14.
G30A A65G U69C U72A gave a self-cleavage of 0.12.
G30U A35G U72C U78C showed a self-cleavage of 0.12.
In the case of A28G U41A U69A U76C, the self-cleavage is reported as 0.14.
In the case of U31C A47U U51A A64G A65G C71U, the self-cleavage is reported as 0.21.
For U31A U43C U54C U74C, the self-cleavage was 0.45.
In the case of A28U C40U A65G, the self-cleavage is reported as 0.46.
Variant A28U C38G U43G U54C A57U has a self-cleavage of 0.05.
Variant G30U A35C A64U has a self-cleavage of 0.21.
G30A U43C A45U A57G U74C showed a self-cleavage of 0.15.
With A28G G55U U69C the self-cleavage was 0.15.
Variant A28G U72C G73A has a self-cleavage of 0.96.
Work on A28G G42A U48A U72A yielded a self-cleavage of 0.07.
Work on A28G U41A A56G A57G yielded a self-cleavage of 0.24.
Variant U31C A35G U43C A47G U72A U78A has a self-cleavage of 0.2.
With U31A A35U U51C U67C U72C G73A the self-cleavage was 0.09.
U31A C32G U66C gave a self-cleavage of 0.07.
Work on U31A A35U U69C U72C yielded a self-cleavage of 0.06.
Work on U31A A35U A56U U74C yielded a self-cleavage of 0.26.
Work on A28G U43C A65U yielded a self-cleavage of 0.41.
Variant A28G G36U C40U A45C U80C has a self-cleavage of 0.1.
With U31A A45G U54C A57G U58A the self-cleavage was 0.07.
Variant A28U A35G A45C U54A A64G U78A has a self-cleavage of 0.26.
Variant A28G U41C U43A U67A U80A has a self-cleavage of 0.13.
A28U U66C U72C gave a self-cleavage of 0.26.
Work on A28G U43C U51A G55C A56G yielded a self-cleavage of 0.22.
With U31A U41A U74C the self-cleavage was 0.24.
C29A U31C C40U G52U U69A gave a self-cleavage of 0.17.
A28G U31A A45C showed a self-cleavage of 0.12.
Work on C29G U41C A57U yielded a self-cleavage of 0.21.
Work on A28G U48C U58C yielded a self-cleavage of 0.13.
In the case of G30A U43C C59A U67A, the self-cleavage is reported as 0.18.
For G30A U43C U66C, the self-cleavage was 0.07.
A28U U54C U80C showed a self-cleavage of 0.85.
With A28G U49A U69C U72C the self-cleavage was 0.21.
In the case of A28G G33C U41C, the self-cleavage is reported as 0.17.
In the case of A28U G33C A47U, the self-cleavage is reported as 0.1.
Variant U31C A35U C62G A65G has a self-cleavage of 0.06.
C29G C39A U54C U72C gave a self-cleavage of 0.09.
In the case of A28U G63A U66A U69A, the self-cleavage is reported as 0.22.
Variant U31A A35G U51C A64C U72G has a self-cleavage of 0.61.
With A28G U31A A57G U60C G70C U78C the self-cleavage was 0.07.
With A28U U43C U69A the self-cleavage was 0.17.
Variant U31A U48C U69C U72A has a self-cleavage of 0.11.
Work on U31C A35U U41C A45U G53A U54G yielded a self-cleavage of 0.17.
In the case of C29G U51A G61A U72C, the self-cleavage is reported as 0.08.
A28G U31C U48G gave a self-cleavage of 0.6.
With U31A A35G U43C U51C the self-cleavage was 0.86.
A28U G33C A64G C68U gave a self-cleavage of 0.1.
With A28G C62A U66C U80C the self-cleavage was 0.13.
A28U G33A U51C gave a self-cleavage of 0.53.
In the case of A28G U69A A75U, the self-cleavage is reported as 0.2.
With A28G U41A A45C U48C A56G the self-cleavage was 0.19.
Work on U31C A45U A47G U51C A56U A65G U69C yielded a self-cleavage of 0.03.
C29U C38G A45U U67C gave a self-cleavage of 0.07.
A28G U31C G42A A45G U51C U66A U72A gave a self-cleavage of 0.05.
In the case of U31A C37A U72A, the self-cleavage is reported as 0.11.
Variant A28G U41C A56G U67C has a self-cleavage of 0.07.
Variant C29A A35G U51C U80A has a self-cleavage of 1.2.
Variant U31C A35G U54G U66C U72C has a self-cleavage of 0.37.
With A28U U43A U67A U69A U72A U80C the self-cleavage was 0.21.
A28U U49C U51A gave a self-cleavage of 0.39.
With U31A A77G U78G the self-cleavage was 0.34.
Variant U31C A45C A57G U58C has a self-cleavage of 0.03.
Work on A28U A47G U72A yielded a self-cleavage of 0.37.
In the case of U31A C37U C39A U67A, the self-cleavage is reported as 0.05.
In the case of A28G G46U A77G U78G, the self-cleavage is reported as 0.04.
U31A U41C U49C gave a self-cleavage of 0.2.
A28U C29U U66C U69C gave a self-cleavage of 0.07.
C29A U31C U51C U54C A56G U72C U80C gave a self-cleavage of 0.08.
With U31C A45G U51A U74C A75G the self-cleavage was 0.73.
With A28U A35U U69A the self-cleavage was 0.2.
A28G U41C A75U showed a self-cleavage of 0.79.
Variant A28U A64U G73A has a self-cleavage of 0.45.
U31A U43C A45C U54C A56G A64G gave a self-cleavage of 0.
Work on G30U U67C U74C yielded a self-cleavage of 0.13.
For A28U U60C A75G, the self-cleavage was 0.24.
With A28G U41C U72C U74C A75G the self-cleavage was 0.21.
U31C A35G U43C U54A A64G C68G U78C showed a self-cleavage of 0.08.
With C29U G42C A47G U51C A57U A75U the self-cleavage was 0.08.
For C29A A35G U67A U69A, the self-cleavage was 0.28.
In the case of U31A U41C U51A G63A U74C, the self-cleavage is reported as 0.56.
With U31A A56G U60A the self-cleavage was 0.1.
In the case of A28G U58C U66C, the self-cleavage is reported as 0.2.
Work on A28G U74C A75U yielded a self-cleavage of 1.21.
In the case of A28U U43C A47G U51A A57G U72A, the self-cleavage is reported as 0.2.
With A28G U51C A65U the self-cleavage was 0.13.
U31A G46U U54C U58A U69G gave a self-cleavage of 0.15.
Work on C29G A45G A56G U78C yielded a self-cleavage of 0.03.
C29G U31C U43A gave a self-cleavage of 0.17.
Work on A28U U31C C44U U51A U76C yielded a self-cleavage of 0.09.
In the case of C29U U43A A45G U54A U72C, the self-cleavage is reported as 0.43.
In the case of A28U C29U U31C A56G A57U, the self-cleavage is reported as 0.1.
U31A A47G A56U showed a self-cleavage of 0.19.
Work on U31A U43C A45U U51C A64G U69A yielded a self-cleavage of 0.07.
Work on A28G U66A A77U yielded a self-cleavage of 0.28.
Work on A28G G33A U51C U66C yielded a self-cleavage of 0.11.
With A28U C38U A47G A56G the self-cleavage was 0.29.
In the case of C29U A64G A75G U80C, the self-cleavage is reported as 0.09.
C29U G52A A75U U76G gave a self-cleavage of 0.41.
For U31A U72A A75G, the self-cleavage was 0.79.
Work on U31C A56G U74C yielded a self-cleavage of 0.89.
C29U U41C A56U U60C gave a self-cleavage of 0.11.
U31A A45U U74A U78C gave a self-cleavage of 0.35.
Variant C29U U41C U43A has a self-cleavage of 0.29.
G30U A35G U41A U66C gave a self-cleavage of 0.12.
G30A U41C C44A gave a self-cleavage of 0.13.
